Data on 25 compounds can be found in the antibiotic and cytotoxicity screens of Wong et al. (2023).

One assay deals with HSkMC. The experiment in a line: cytotoxicity call (relative viability < 0.9). The note with it: 10 µM.
The subject of the next assay is HepG2. Put plainly: cytotoxicity call (relative viability < 0.9). The note with it: 10 µM.
A further assay relates to S. aureus RN4220. Put plainly: growth inhibition call (relative growth <= 0.2). The note with it: 50 µM.

The other results are listed elsewhere or left out.

Consider `Cc1cccc(C)c1NC(=O)c1cc(S(N)(=O)=O)c(Cl)cc1O`, for which the cytotoxicity call in the assay on HSkMC and in the assay on HepG2 was “inactive” throughout. Moreover, the growth inhibition call in the assay with S. aureus RN4220 was “inactive”.
For `C[C@H]1CN([C@@H](C)CO)C(=O)c2ccccc2-c2ccccc2CO[C@H]1CN(C)Cc1ccc(C(F)(F)F)cc1`, the cytotoxicity call in the assay on HSkMC and with HepG2 was “inactive” in each case. Besides, in the assay with S. aureus RN4220, the growth inhibition call is “inactive”.
On to `CO[C@H](CN(C)S(=O)(=O)c1ccc(C)cc1)[C@H](C)CN([C@@H](C)CO)S(=O)(=O)c1cccc(Cl)c1`, for which the cytotoxicity call with HSkMC and in the assay on HepG2 was “inactive” each time. Besides, the growth inhibition call with S. aureus RN4220 was “inactive”.
`Cc1noc(C)c1NC(=O)N(C)C[C@@H]1Oc2ccc(NS(=O)(=O)c3cn(C)cn3)cc2CC(=O)N([C@@H](C)CO)C[C@H]1C`: the cytotoxicity call with HSkMC and in the assay with HepG2 was “inactive” each time. Also, in the assay on S. aureus RN4220, the growth inhibition call was “inactive”.
With `C=CCC[C@H](Cc1ccc(F)cc1)C(=O)OC[C@@H](NC(=O)[C@@H](CC=C)CC(=O)N[C@@H](CO)Cc1ccccc1)C(C)(C)C`, the cytotoxicity call in the assay with HSkMC was “inactive”. For the same compound, the cytotoxicity call in the assay with HepG2 was “active”. In addition, the growth inhibition call in the assay with S. aureus RN4220 was “inactive”.
Consider `COc1ccc(C(=O)Nc2ccc3c(c2)C(=O)N(C)[C@H]2CC[C@@H](CC(=O)NCC4CC4)O[C@@H]2CO3)cc1`, for which the cytotoxicity call in the assay with HSkMC and with HepG2 was “inactive” each time. For the same compound, in the assay on S. aureus RN4220, the growth inhibition call is “inactive”.
For `O=C(NC1CC1)c1n[nH]c(=O)c2ccccc12`, the cytotoxicity call in the assay on HSkMC and with HepG2 was “inactive” each time. Besides, the growth inhibition call with S. aureus RN4220 was “inactive”.
Take `Cn1cnc(S(=O)(=O)N[C@@H]2CC[C@H](CC(=O)N3CCN(c4ccccc4)CC3)O[C@H]2CO)c1`: the cytotoxicity call with HSkMC and in the assay with HepG2 was “inactive” each time. Further, the growth inhibition call in the assay with S. aureus RN4220 is “inactive”.
For `COc1cccc2c1C(=O)c1c(O)c3c(c(O)c1C2=O)CC(O)(C(=O)CO)CC3OC1CC(N)C(O)C(C)O1` (stereo not given), in the assay on HSkMC, the cytotoxicity call is “inactive”. Also, in the assay on HepG2, the cytotoxicity call is “active”. In addition, the growth inhibition call in the assay with S. aureus RN4220 is “inactive”.
With `C[C@@H]1CN([C@@H](C)CO)C(=O)c2cccc(NC(=O)c3ccc(-c4nccs4)cc3)c2O[C@H]1CN(C)CC1CCCCC1`, the cytotoxicity call with HSkMC and with HepG2 was “inactive” throughout. In addition, the growth inhibition call in the assay with S. aureus RN4220 was “inactive”.
As to `COCC#Cc1ccc2c(c1)O[C@H](CN(C)S(C)(=O)=O)[C@@H](C)CN([C@@H](C)CO)S2(=O)=O`, the cytotoxicity call in the assay on HSkMC and in the assay with HepG2 was “inactive” in each case. Moreover, in the assay on S. aureus RN4220, the growth inhibition call is “inactive”.
`C[C@H]1CN([C@@H](C)CO)C(=O)Cc2cc(NS(=O)(=O)c3ccc(F)cc3)ccc2O[C@@H]1CN(C)S(C)(=O)=O`: the cytotoxicity call in the assay with HSkMC and with HepG2 was “inactive” each time. The growth inhibition call in the assay with S. aureus RN4220 was “inactive”.
As to `C[C@@H]1CN([C@@H](C)CO)C(=O)c2cc(C3=CCCCC3)cnc2O[C@@H]1CN(C)S(=O)(=O)c1cn(C)cn1`, the cytotoxicity call with HSkMC and with HepG2 was “inactive” throughout. The growth inhibition call with S. aureus RN4220 was “inactive”.
Consider `C[C@H](CO)N1C[C@H](C)[C@H](CN(C)C(=O)Nc2ccc(C(F)(F)F)cc2)Oc2ccc(NC(=O)CCC(F)(F)F)cc2CC1=O`, for which the cytotoxicity call in the assay on HSkMC and in the assay on HepG2 was “inactive” throughout. In addition, the growth inhibition call in the assay on S. aureus RN4220 is “inactive”.
In the case of `Cc1ccc(S(=O)(=O)Nc2ccc3c(c2)C(=O)N([C@H](C)CO)C[C@@H](C)[C@@H](CN(C)C(=O)Nc2ccccc2)OCCCC[C@@H](C)O3)cc1`, the cytotoxicity call with HSkMC and in the assay with HepG2 was “inactive” each time. Besides, in the assay with S. aureus RN4220, the growth inhibition call is “inactive”.
Turning to `Cc1noc(C)c1NC(=O)N(C)C[C@@H]1Oc2ccc(NC(=O)Nc3cccc4ccccc34)cc2C(=O)N([C@H](C)CO)C[C@@H]1C`, the cytotoxicity call in the assay with HSkMC and in the assay with HepG2 was “inactive” in each case. For the same compound, the growth inhibition call with S. aureus RN4220 was “inactive”.
In the case of `C[C@H](CO)N1C[C@H](C)[C@H](CN(C)Cc2cccc(C(F)(F)F)c2)Oc2ncc(-c3ccccc3)cc2C1=O`, the cytotoxicity call with HSkMC and with HepG2 was “inactive” in each case. For the same compound, in the assay with S. aureus RN4220, the growth inhibition call is “inactive”.
Turning to `CC(C)NC(=O)N(C)C[C@H]1Oc2ccc(NC(=O)NC3CCCCC3)cc2CC(=O)N([C@@H](C)CO)C[C@@H]1C`, the cytotoxicity call with HSkMC and in the assay on HepG2 was “inactive” each time. Moreover, the growth inhibition call with S. aureus RN4220 was “inactive”.
As for `C[C@@H]1CN([C@@H](C)CO)C(=O)Cc2cc(NC(=O)Nc3cccc4ccccc34)ccc2O[C@@H]1CN(C)Cc1ccncc1`, the cytotoxicity call with HSkMC is “inactive”. For the same compound, the cytotoxicity call in the assay on HepG2 is “active”. In addition, the growth inhibition call in the assay with S. aureus RN4220 was “inactive”.
Take `C[C@@H]1CN([C@H](C)CO)C(=O)Cc2cc(NC(=O)Cc3ccccc3)ccc2O[C@@H]1CN(C)S(=O)(=O)c1cn(C)cn1`: the cytotoxicity call in the assay with HSkMC and in the assay on HepG2 was “inactive” in each case. The growth inhibition call in the assay with S. aureus RN4220 was “inactive”.
On to `Cc1ccc(S(=O)(=O)N(C)C[C@@H]2Oc3ccc(NS(=O)(=O)c4cccs4)cc3CC(=O)N([C@H](C)CO)C[C@H]2C)cc1`, for which the cytotoxicity call in the assay on HSkMC (human skeletal muscle cells) and with HepG2 was “inactive” throughout. Also, the growth inhibition call with S. aureus RN4220 was “inactive”.
Take `Cc1ccc(S(=O)(=O)N(C)C[C@@H]2Oc3c(NC(=O)Nc4ccc(C(F)(F)F)cc4)cccc3C(=O)N([C@H](C)CO)C[C@@H]2C)cc1`: the cytotoxicity call in the assay with HSkMC and with HepG2 was “inactive” throughout. For the same compound, in the assay on S. aureus RN4220, the growth inhibition call is “inactive”.
On to `NCc1cn2cc(Cl)ccc2n1`, for which the cytotoxicity call in the assay with HSkMC and in the assay on HepG2 was “inactive” throughout. In the assay with S. aureus RN4220, the growth inhibition call is “inactive”.
With `C[C@@H]1CN([C@@H](C)CO)C(=O)c2cc(NC(=O)Nc3ccc(F)cc3)ccc2O[C@@H](C)CCCCO[C@@H]1CN(C)C(=O)CCCN(C)C`, the cytotoxicity call with HSkMC and in the assay with HepG2 was “inactive” in each case. Further, the growth inhibition call with S. aureus RN4220 was “inactive”.
In the case of `C[C@@H]1CN([C@H](C)CO)C(=O)Cc2cc(NC(=O)Cn3cnnn3)ccc2O[C@H]1CN(C)C(=O)NC1CCCCC1`, the cytotoxicity call in the assay with HSkMC and in the assay on HepG2 was “inactive” throughout. Moreover, in the assay on S. aureus RN4220, the growth inhibition call is “inactive”.
